Test results from paper PMC4336329 (PLoS ONE, 2015).
The campaign covered roughly 310,000 compounds. About 14,000 (4.5%) showed an effect of 50% or more. Effects have a minus sign here. This is one part of the list.

What follows are compounds tested against human ether-à-go-go-related gene (hERG) potassium channel (human, UniProt Q12809) (assay: primary screen, population patch clamp on CHO cells stably expressing hERG).
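Note: peak tail current of the secondary pulse compared with the same well before compound.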

Chain of human ether-à-go-go-related gene (hERG) potassium channel (Q12809 whole entry, looked up): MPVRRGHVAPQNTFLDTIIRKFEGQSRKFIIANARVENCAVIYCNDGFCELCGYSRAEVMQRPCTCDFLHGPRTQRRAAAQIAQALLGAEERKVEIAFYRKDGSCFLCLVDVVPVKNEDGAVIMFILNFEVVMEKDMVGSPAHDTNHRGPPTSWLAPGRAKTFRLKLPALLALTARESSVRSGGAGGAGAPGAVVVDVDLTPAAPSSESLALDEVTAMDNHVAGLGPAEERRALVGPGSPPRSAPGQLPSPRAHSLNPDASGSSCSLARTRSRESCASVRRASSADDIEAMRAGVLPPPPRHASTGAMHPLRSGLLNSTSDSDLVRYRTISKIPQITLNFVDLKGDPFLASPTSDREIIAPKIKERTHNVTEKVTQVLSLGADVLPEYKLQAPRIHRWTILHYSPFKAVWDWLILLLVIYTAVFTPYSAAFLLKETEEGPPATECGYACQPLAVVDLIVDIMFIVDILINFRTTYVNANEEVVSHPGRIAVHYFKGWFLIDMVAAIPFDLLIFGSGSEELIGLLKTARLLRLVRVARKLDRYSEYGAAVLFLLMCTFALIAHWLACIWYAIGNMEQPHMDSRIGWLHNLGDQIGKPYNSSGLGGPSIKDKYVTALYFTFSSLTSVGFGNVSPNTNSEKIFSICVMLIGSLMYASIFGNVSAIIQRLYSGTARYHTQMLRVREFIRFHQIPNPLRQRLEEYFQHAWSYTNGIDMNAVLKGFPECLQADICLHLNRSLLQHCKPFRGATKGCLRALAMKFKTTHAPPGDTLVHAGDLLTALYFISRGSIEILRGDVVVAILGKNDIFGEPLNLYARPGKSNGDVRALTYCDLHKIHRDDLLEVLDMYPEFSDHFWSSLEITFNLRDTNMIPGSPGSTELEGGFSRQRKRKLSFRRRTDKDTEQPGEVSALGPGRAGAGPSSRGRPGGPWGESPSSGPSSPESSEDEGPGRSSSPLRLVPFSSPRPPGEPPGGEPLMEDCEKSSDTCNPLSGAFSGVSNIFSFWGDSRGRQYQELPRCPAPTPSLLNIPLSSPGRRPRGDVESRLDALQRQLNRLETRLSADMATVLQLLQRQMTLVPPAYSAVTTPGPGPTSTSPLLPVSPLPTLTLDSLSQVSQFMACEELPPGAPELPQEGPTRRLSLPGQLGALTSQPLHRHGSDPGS

Structure (SMILES) | hERG current change (%, negative = inhibition) at 10uM [%]
CCc1ccc(N2CC(C(=O)Nc3nc4ccc(S(C)(=O)=O)cc4s3)CC2=O)cc1 (stereo not drawn) | -29.1
COc1ccc(CCNC(=O)COC(=O)c2ccc([N+](=O)[O-])o2)cc1 | 2.31
CC(C)[C@H](NC(=O)c1ccc(F)cc1)C(=O)NC1=NCCS1 | 13.4
COc1cccc(CN2CC(C(=O)N(C)Cc3[nH]c4ccccc4c3C)CCC2=O)c1 (stereo not drawn) | -20.5
COCCNC(=O)c1nn2cccnc2c1Cl | -11.3
CCCNC(=O)COc1coc(CN2CCN(c3cccc(Cl)c3)CC2)cc1=O | -25.7
O=C(NCCc1ccccn1)/C(=C/c1ccco1)NC(=O)c1ccccc1 | 22.3
CCOC(=O)C1CCN(c2nc(C)nc3c2oc2ccccc23)CC1.Cl | -21.9
Brc1ccc(Oc2ccc(Br)cc2Br)c(Br)c1 | 20.2
COc1ccc(C(=O)N=C2SC3CS(=O)(=O)CC3N2Cc2ccc(F)cc2)cc1 (stereo not drawn) | 11.7
CC1=NN(C(N)=S)C(=O)C1N=Nc1cccc(Cl)c1C (stereo not drawn) | 19.4
COc1cc(OC)c(OC)cc1/C=N/n1c(C)nnc1C | 23.1
Cn1ccnc1SCC(=O)c1cccc(Br)c1 | -0.753
CCCCCC/C=N/Nc1nnc(Cc2ccccc2)c(=O)[nH]1 | 11.9
Cc1cc(OCC(=O)N(C)C2CCCCC2)ccc1Cl | -1.71
CCOc1ccc(CCNC(=O)C2CCC(=O)N2CCc2ccccc2)cc1OCC (stereo not drawn) | -2.76
CCOC(=O)C(Cc1ccccc1)NC(=O)CCc1nnc2ccc(N3CCOCC3)nn12 (stereo not drawn) | 11.7
N#Cc1cccc(NS(=O)(=O)c2ccc(S(=O)(=O)N3CCOCC3)cc2)c1 | -2.11
CC(C)(C)SCCNS(=O)(=O)c1ccc(Cl)cc1 | 5.37

Structure (SMILES) | hERG current change (%, negative = inhibition) at 10uM [%]
CCN(CC)/C(=N\S(=O)(=O)c1ccccc1C)c1ccccc1 | -9.32
CC(C)CNc1nnnc2c1sc1nc(N3CCOCC3)c3c(c12)CCCC3 | 15.4
COc1cc(NC(=O)c2ccccc2Cl)c(OC)cc1NC(=O)CN1CCOCC1 | -3.34
CC(=O)NC1C(Oc2ccc(C)cc2)OC2COC(c3ccco3)OC2C1O (stereo not drawn) | 14.7
CCN(Cc1ccccc1)C(=O)CSc1nc(C)cc2c1C(=O)OC2 | -3.11
CCOc1cc(/C=N/NC(=O)c2cc(-c3ccccc3)nc3ccccc23)ccc1O | 15.8
Cc1ccnn1CC(=O)N/N=C/c1cn[nH]c1-c1ccccc1 | 13.1
COc1ccc(C2=NNC(c3ccco3)=Nc3ccc(F)cc32)cc1 | -10.8
COc1ccc(NC(=O)c2nc[nH]c2C(=O)N[C@@H](CC(C)C)C(=O)OC(C)(C)C)cc1 | 18.4
CCC(Sc1nc(=O)cc(N)n1CCc1ccccc1)C(=O)Nc1cc(C)on1 (stereo not drawn) | -1.23
CCc1c(C)nc(SCCOc2ccc(OC(C)C)cc2)[nH]c1=O | 18.1
CCCCCC[n+]1c(-c2ccc(Cl)cc2Cl)csc1Nc1ccccc1.[Cl-] | 4.18
Cc1cc(N2C(=O)CC(Cc3ccccc3)C2=O)no1 (stereo not drawn) | 10.9
CCCc1cc(C(=O)NCCc2ccccc2)no1 | -11.7
Cc1ccc(NC(=O)N2CCCCCC2)cc1 | -10.3
CCOC(=O)C1CCCN(Cc2cc(Br)c(OC)cc2OC)C1 (stereo not drawn) | -16.4
CCOC(=O)C1=C(c2ccccc2)NC(=O)NC1c1ccc(N(C)C)cc1 (stereo not drawn) | -7.08
O=C(CN1CCOCC1)Nc1ccc2c(c1)OCO2 | 17.3
CC1(C)CC(=O)C2=C(C1)NC1=C(C(=O)c3ccccc31)C2c1cccnc1 (stereo not drawn) | 13

Structure (SMILES) | hERG current change (%, negative = inhibition) at 10uM [%]
CCOC(=O)C1CCCN(C(=O)c2cc3c(C)nc4ccccc4c3o2)C1 (stereo not drawn) | -43.1
COc1ccc(-n2c(O)c(/C=N/NS(=O)(=O)c3cc(C)ccc3C)c3ccccc3c2=O)cc1OC | 11.7
COCCNc1ccc(S(=O)(=O)N2CCCC2)cn1 | 13.2
Cc1nn(Cc2c(Cl)cccc2Cl)c(C)c1N | 9.12
Br.NS(=O)(=O)c1ccc(Nc2nc(-c3ccccc3)cs2)cc1 | -26
Cc1c(NC(=O)c2ccc(Cl)c(S(=O)(=O)N3CCCCC3)c2)c(=O)n(-c2ccccc2)n1C | -6.27
O=C(CN1C(=O)NC2(CCCC2)C1=O)OCCOc1ccc(F)cc1 | 6.62
COc1ccc(C(=O)OCCOc2cccc(Cl)c2)cc1S(=O)(=O)N1CCOCC1 | -24.1
O=C(CN1CCCCCC1)Nc1ccccc1Cl | 6.75
COCCn1cc(C(=O)NCc2ccco2)c2c3ccccc3n(C)c2c1=O | -20.6
CCOC(=O)c1ccc(S(=O)(=O)Nc2ccc(N3CCOCC3)cc2)cc1 | 3.9
COc1ccc(C(=O)COc2ccc3c(C)cc(=O)oc3c2)cc1 | 11.1
CCCn1c(SCc2cc(=O)oc3ccc4ccccc4c23)n[nH]c1=O | -29.2
Cc1cccn2c(=O)c(C=O)c(Nc3ccccc3)nc12 | -2.21
O=C(c1ccco1)N1CCN(Cc2nc3ccccc3c(=O)n2-c2ccc(F)cc2)CC1 | -18.8
COc1ccc(Nc2nc(NN)nc(C)c2[N+](=O)[O-])cc1 | 18.5
Cc1ccc(NS(=O)(=O)c2ccc3c(c2)C(=O)c2ccccc2C3=O)c(C)c1 | 4.16
Cc1cc(=O)n(CC(=O)Nc2cc(Cl)ccc2C)c(C(C)C)n1 | -1.59
CCOC(=O)c1oc2ccccc2c1NC(=O)CN1CCOCC1 | 6.54
